Results on 195 variants are retold here after a collection of fitness landscapes (doi:10.1126/science.1257360).

The other results are listed elsewhere or left out.

The chains are these.
B1: PhoQ; a variant is named by its letters at X, in order, P23837 (parent)
chain: MKKLLRLFFPLSLRVRFLLATAAVVLVLSLAYGMVALIGYSVSFDKTTFRLLRGESNLFYTLAKWENNKLHVELPENIDKQSPTMTLIYDENGQLLWAQRDVPWLMKMIQPDWLKSNGFHEIEADVNDTSLLLSGDHSIQQQLQEVREDDDDAEMTHSVAVNVYPATSRMPKLTIVVVDTIPVELKSSYMVWSWFIYVLSANLLLVIPLLWVAAWWSLRPIEALAKEVRELEEHNRELLNPATTRELTSLVRNLNRLLKSERERYDKYRTTLTDLTHSLKTPLXXLQXXLRSLRSEKMSVSDAEPVMLEQISRISQQIGYYLHRASMRGGTLLSRELHPVAPLLDNLTSALNKVYQRKGVNISLDISPEISFVGEQNDFVEVMGNVLDNACKYCLEFVEISARQTDEHLYIVVEDDGPGIPLSKREVIFDRGQRVDTLRPGQGVGLAVAREITEQYEGKIVAGESMLGGARMEVIFGRQHSAPKDE

This assay covers variants of B1. Briefly: enrichment ratio after two sorts for PhoP signalling (ratio (wild type AVST 3.29)); higher = more functional. As to conditions: with PhoP (E. coli).
Take WGVL: the enrichment ratio was no more than 0.25.

Regarding GCVL, the enrichment ratio is 0.463.

In the case of FKNN, the enrichment ratio is no more than 0.25.

On to VRYY, for which the enrichment ratio was no more than 0.25.

As to YLQR, the enrichment ratio is no more than 0.25.

As for KNFQ, the enrichment ratio was no more than 0.25.

As for GGPI, the enrichment ratio is no more than 0.25.

For the variant LALD, the enrichment ratio was no more than 0.25.

For AIWY, the enrichment ratio is no more than 0.25.

As to VCLI, the enrichment ratio is 5.48.

Consider DTKD, for which the enrichment ratio was no more than 0.25.

Consider NHEP, for which the enrichment ratio is no more than 0.25.

VGAF: the enrichment ratio was no more than 0.25.

As to LFQS, the enrichment ratio was no more than 0.25.

For EGQS, the enrichment ratio was no more than 0.25.

Regarding FSIH, the enrichment ratio was no more than 0.25.

Take TSIK: the enrichment ratio is no more than 0.25.

In the case of EKMV, the enrichment ratio was no more than 0.25.

In the case of AYCL, the enrichment ratio was no more than 0.25.

Consider YAKW, for which the enrichment ratio was no more than 0.25.

As to KVAI, the enrichment ratio was no more than 0.25.

Take WCKW: the enrichment ratio is no more than 0.25.

For TALH, the enrichment ratio is 6.21.

Consider PWWV, for which the enrichment ratio was no more than 0.25.

As to DIIL, the enrichment ratio was no more than 0.25.

Turning to KYHS, the enrichment ratio is no more than 0.25.

Consider RRFI, for which the enrichment ratio is no more than 0.25.

In the case of GIII, the enrichment ratio amounted to 9.25.

On to WEIW, for which the enrichment ratio was no more than 0.25.

GTHK: the enrichment ratio is no more than 0.25.

Turning to VTTT, the enrichment ratio was no more than 0.25.

Turning to VWLA, the enrichment ratio is no more than 0.25.

As for WIGD, the enrichment ratio was no more than 0.25.

As to RFHH, the enrichment ratio is no more than 0.25.

As to DFGC, the enrichment ratio is no more than 0.25.

Consider AHEP, for which the enrichment ratio was no more than 0.25.

As to MAQI, the enrichment ratio was no more than 0.25.

LIAG: the enrichment ratio is no more than 0.25.

For MPHG, the enrichment ratio is no more than 0.25.

As to PSHW, the enrichment ratio is no more than 0.25.

Take RKST: the enrichment ratio is no more than 0.25.

As for MTML, the enrichment ratio is 4.85.

With GTGC, the enrichment ratio is no more than 0.25.

SDDQ: the enrichment ratio is no more than 0.25.

With KNFP, the enrichment ratio was no more than 0.25.

Consider PKDE, for which the enrichment ratio is no more than 0.25.

ENAH: the enrichment ratio is no more than 0.25.

For VCQP, the enrichment ratio was no more than 0.25.

For QRWR, the enrichment ratio is no more than 0.25.

With GKDI, the enrichment ratio was no more than 0.25.

On to SICR, for which the enrichment ratio turned out to be 9.

Consider FPQQ, for which the enrichment ratio is no more than 0.25.

TISS: the enrichment ratio turned out to be 11.9.

Take LRGN: the enrichment ratio is no more than 0.25.

In the case of NHAC, the enrichment ratio is no more than 0.25.

Regarding STCC, the enrichment ratio worked out at 13.7.

LDHP: the enrichment ratio is no more than 0.25.

On to PVRF, for which the enrichment ratio was no more than 0.25.

Take FLHK: the enrichment ratio was no more than 0.25.

For VSRF, the enrichment ratio was no more than 0.25.

In the case of MCLW, the enrichment ratio is no more than 0.25.

As to HFHY, the enrichment ratio is no more than 0.25.

For SVKR, the enrichment ratio is no more than 0.25.

For YFHR, the enrichment ratio was no more than 0.25.

Consider TWTV, for which the enrichment ratio was no more than 0.25.

On to LAYA, for which the enrichment ratio is no more than 0.25.

Consider HWYW, for which the enrichment ratio is no more than 0.25.

For GFWR, the enrichment ratio is no more than 0.25.

Turning to LKSY, the enrichment ratio is no more than 0.25.

Regarding GLYG, the enrichment ratio was no more than 0.25.

In the case of NDIM, the enrichment ratio was no more than 0.25.

For the variant QMWV, the enrichment ratio was no more than 0.25.

Turning to GYRL, the enrichment ratio is no more than 0.25.

For the variant QFDH, the enrichment ratio was no more than 0.25.

Take WSMC: the enrichment ratio was no more than 0.25.

Regarding IHNN, the enrichment ratio was no more than 0.25.

As to HQES, the enrichment ratio is no more than 0.25.

Regarding ATVQ, the enrichment ratio is 13.9.

Take AEML: the enrichment ratio was 14.4.

With QENT, the enrichment ratio is no more than 0.25.

GPPL: the enrichment ratio was no more than 0.25.

Regarding GINH, the enrichment ratio is no more than 0.25.

For the variant GGAT, the enrichment ratio is no more than 0.25.

For VEQP, the enrichment ratio is no more than 0.25.

On to HGEG, for which the enrichment ratio was no more than 0.25.

Turning to DVST, the enrichment ratio is no more than 0.25.

In the case of FQKS, the enrichment ratio was no more than 0.25.

For AEPN, the enrichment ratio is no more than 0.25.

As to TTMG, the enrichment ratio is 8.18.

Consider ETWS, for which the enrichment ratio was no more than 0.25.

As to YAGV, the enrichment ratio was no more than 0.25.

Turning to HRPF, the enrichment ratio stood at 0.462.

On to VCNH, for which the enrichment ratio was no more than 0.25.

For CRFS, the enrichment ratio was no more than 0.25.

Turning to QRWP, the enrichment ratio is no more than 0.25.

Take YDAV: the enrichment ratio was no more than 0.25.

Regarding GEMF, the enrichment ratio is no more than 0.25.

With RATG, the enrichment ratio was no more than 0.25.

As for IHGF, the enrichment ratio was no more than 0.25.

In the case of HSVQ, the enrichment ratio was no more than 0.25.

On to EISH, for which the enrichment ratio was no more than 0.25.

For WEFN, the enrichment ratio is no more than 0.25.

Regarding NDAS, the enrichment ratio is no more than 0.25.

On to MFVN, for which the enrichment ratio was no more than 0.25.

As for FMCL, the enrichment ratio turned out to be 4.06.

Take WANL: the enrichment ratio was no more than 0.25.

Take LFVN: the enrichment ratio is no more than 0.25.

With TCQQ, the enrichment ratio was 11.5.

KTFW: the enrichment ratio is no more than 0.25.

With MFWQ, the enrichment ratio was no more than 0.25.

YVRV: the enrichment ratio is no more than 0.25.

Turning to SGSD, the enrichment ratio is no more than 0.25.

For VDCW, the enrichment ratio is no more than 0.25.

Take QLCS: the enrichment ratio is no more than 0.25.

Regarding GVPR, the enrichment ratio was no more than 0.25.

As to QYVK, the enrichment ratio is no more than 0.25.

Turning to ILQP, the enrichment ratio is no more than 0.25.

Turning to YKDH, the enrichment ratio is no more than 0.25.

On to YRHS, for which the enrichment ratio is no more than 0.25.

Turning to RWTR, the enrichment ratio was no more than 0.25.

DRQG: the enrichment ratio was no more than 0.25.

Consider VIQK, for which the enrichment ratio is no more than 0.25.

For PAWL, the enrichment ratio is no more than 0.25.

As for SAMG, the enrichment ratio is 5.01.

Take QHNI: the enrichment ratio amounted to 8.51.

Regarding ILAY, the enrichment ratio is no more than 0.25.

For DSFC, the enrichment ratio was no more than 0.25.

For the variant NRLF, the enrichment ratio is no more than 0.25.

On to RFND, for which the enrichment ratio was no more than 0.25.

WEIG: the enrichment ratio is no more than 0.25.

On to GMVV, for which the enrichment ratio was no more than 0.25.

For the variant FMEP, the enrichment ratio is no more than 0.25.

Regarding KLVQ, the enrichment ratio is no more than 0.25.

TICE: the enrichment ratio is no more than 0.25.

Turning to GTID, the enrichment ratio is no more than 0.25.

Take GDGA: the enrichment ratio was no more than 0.25.

For the variant PHHS, the enrichment ratio was no more than 0.25.

As for QCTR, the enrichment ratio was no more than 0.25.

For the variant YLLG, the enrichment ratio is no more than 0.25.

On to THGT, for which the enrichment ratio is no more than 0.25.

As to FQDD, the enrichment ratio was no more than 0.25.

Turning to ICLC, the enrichment ratio worked out at 5.6.

As to YHTN, the enrichment ratio was no more than 0.25.

Regarding EHPM, the enrichment ratio is no more than 0.25.

On to FFDR, for which the enrichment ratio is no more than 0.25.

Take TGGM: the enrichment ratio is no more than 0.25.

As for IPYV, the enrichment ratio was no more than 0.25.

Turning to QPFR, the enrichment ratio amounted to 0.836.

As to YAHI, the enrichment ratio was no more than 0.25.

RCSS: the enrichment ratio was no more than 0.25.

As to TDLE, the enrichment ratio is no more than 0.25.

In the case of VFSL, the enrichment ratio was no more than 0.25.

Turning to ARGR, the enrichment ratio was no more than 0.25.

Consider ACGM, for which the enrichment ratio is no more than 0.25.

NVPL: the enrichment ratio was no more than 0.25.

As for LDNL, the enrichment ratio is no more than 0.25.

With GHDR, the enrichment ratio is no more than 0.25.

Take YDGE: the enrichment ratio is no more than 0.25.

With RYGF, the enrichment ratio is no more than 0.25.

As to SYYC, the enrichment ratio is no more than 0.25.

As for SSFL, the enrichment ratio was 7.53.

On to MCYQ, for which the enrichment ratio was 17.2.

For the variant FTQK, the enrichment ratio is no more than 0.25.

Turning to NGTP, the enrichment ratio is no more than 0.25.

Turning to YCIF, the enrichment ratio is no more than 0.25.

As for PWDP, the enrichment ratio is no more than 0.25.

Take MEFW: the enrichment ratio is no more than 0.25.

In the case of HAPG, the enrichment ratio is no more than 0.25.

Turning to DTRR, the enrichment ratio was no more than 0.25.

Regarding AMRV, the enrichment ratio was no more than 0.25.

As for DLDN, the enrichment ratio was no more than 0.25.

On to GIQD, for which the enrichment ratio was no more than 0.25.

In the case of GLLW, the enrichment ratio is no more than 0.25.

Consider YYLN, for which the enrichment ratio is no more than 0.25.

As for NVWN, the enrichment ratio was no more than 0.25.

Take NYGV: the enrichment ratio was no more than 0.25.

On to EMGM, for which the enrichment ratio is no more than 0.25.

For the variant YYLH, the enrichment ratio is no more than 0.25.

For the variant LIPW, the enrichment ratio is no more than 0.25.

On to DMRG, for which the enrichment ratio is no more than 0.25.

With IVPR, the enrichment ratio is no more than 0.25.

With YTYH, the enrichment ratio was no more than 0.25.

On to LSIW, for which the enrichment ratio was no more than 0.25.

As to MYQR, the enrichment ratio was no more than 0.25.

Regarding KSCV, the enrichment ratio is no more than 0.25.

With WKSN, the enrichment ratio is no more than 0.25.

For the variant KMTT, the enrichment ratio is no more than 0.25.

Consider TLAG, for which the enrichment ratio stood at 5.61.

Take DIHF: the enrichment ratio was no more than 0.25.

For the variant YMDF, the enrichment ratio was no more than 0.25.

In the case of MCKN, the enrichment ratio is no more than 0.25.

For the variant NERI, the enrichment ratio is no more than 0.25.

As for HEPP, the enrichment ratio is no more than 0.25.

Consider IETA, for which the enrichment ratio was no more than 0.25.

Regarding QKQS, the enrichment ratio was no more than 0.25.
